Data published in patent US20180362604A1 (SHIRE HUMAN GENETIC THERAPIES, published 2018).
Values joined by “and” are separate entries in the source; they are usually repeats but may differ in a detail not shown here. Equal entries are not always repeated.

T1: Myostatin (UniProt O14793 267-375)
T1 construct: bought protein; also called GDF-8; MST
T1 sequence (looked up): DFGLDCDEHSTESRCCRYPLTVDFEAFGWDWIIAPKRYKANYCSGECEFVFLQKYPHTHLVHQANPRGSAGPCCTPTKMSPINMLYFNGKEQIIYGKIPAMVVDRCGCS

T2: BMP-10 (UniProt O95393 317-424)
T2 construct: bought protein; also called bone morphogenic protein-10
T2 sequence (looked up): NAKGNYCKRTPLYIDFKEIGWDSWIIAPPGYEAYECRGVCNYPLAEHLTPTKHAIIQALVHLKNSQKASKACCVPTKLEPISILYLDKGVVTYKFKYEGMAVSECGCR

T3: BMP-9 (UniProt Q9UK05 320-429)
T3 construct: bought protein; also called bone morphogenic protein-9
T3 sequence (looked up): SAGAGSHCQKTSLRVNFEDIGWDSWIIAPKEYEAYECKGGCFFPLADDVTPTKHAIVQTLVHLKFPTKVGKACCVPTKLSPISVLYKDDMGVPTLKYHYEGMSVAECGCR

T4: Activin A (UniProt P08476 311-426)
T4 sequence (looked up): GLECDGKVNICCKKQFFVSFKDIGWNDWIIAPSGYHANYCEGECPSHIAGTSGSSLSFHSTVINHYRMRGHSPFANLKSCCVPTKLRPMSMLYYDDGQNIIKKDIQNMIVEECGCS

B1: FS315K82T-hFcLALA (Fc fusion)
chain: GNCWLRQAKNGRCQVLYKTELSKEECCSTGRLSTSWTEEDVNDNTLFKWMIFNGGAPNCIPCKETCENVDCGPGKKCRMNKTNKPRCVCAPDCSNITWKGPVCGLDGKTYRNECALLKARCKEQPELEVQYQGRCKKTCRDVFCPGSSTCVVDQTNNAYCVTCNRICPEPASSEQYLCGNDGVTYSSACHLRKATCLLGRSIGLAYEGKCIKAKSCEDIQCTGGKKCLWDFKVGRGRCSLCDELCPDSKSDEPVCASDNATYASECAMKEAACSSGVLLEVKHSGSCNSISEDTEEEEEDEDQDYSFPISSILEW[here human IgG1 Fc with changes without letters]
B2: FS315C66S/K75N/C77T-hFcLALA (Fc fusion)
chain: GNCWLRQAKNGRCQVLYKTELSKEECCSTGRLSTSWTEEDVNDNTLFKWMIFNGGAPNCIPCKETSENVDCGPGNKTRMNKKNKPRCVCAPDCSNITWKGPVCGLDGKTYRNECALLKARCKEQPELEVQYQGRCKKTCRDVFCPGSSTCVVDQTNNAYCVTCNRICPEPASSEQYLCGNDGVTYSSACHLRKATCLLGRSIGLAYEGKCIKAKSCEDIQCTGGKKCLWDFKVGRGRCSLCDELCPDSKSDEPVCASDNATYASECAMKEAACSSGVLLEVKHSGSCNSISEDTEEEEEDEDQDYSFPISSILEW[here human IgG1 Fc with changes without letters]
modifications: N-linked glycan on N75 (21.5% occupancy)
notes: hyperglycosylated variant
B3: FS315R86N/V88T-hFcLALA (Fc fusion)
chain: GNCWLRQAKNGRCQVLYKTELSKEECCSTGRLSTSWTEEDVNDNTLFKWMIFNGGAPNCIPCKETCENVDCGPGKKCRMNKKNKPNCTCAPDCSNITWKGPVCGLDGKTYRNECALLKARCKEQPELEVQYQGRCKKTCRDVFCPGSSTCVVDQTNNAYCVTCNRICPEPASSEQYLCGNDGVTYSSACHLRKATCLLGRSIGLAYEGKCIKAKSCEDIQCTGGKKCLWDFKVGRGRCSLCDELCPDSKSDEPVCASDNATYASECAMKEAACSSGVLLEVKHSGSCNSISEDTEEEEEDEDQDYSFPISSILEW[here human IgG1 Fc with changes without letters]
B4: FS315C66A/K75N/C77T-hFcLALA (Fc fusion)
chain: GNCWLRQAKNGRCQVLYKTELSKEECCSTGRLSTSWTEEDVNDNTLFKWMIFNGGAPNCIPCKETAENVDCGPGNKTRMNKKNKPRCVCAPDCSNITWKGPVCGLDGKTYRNECALLKARCKEQPELEVQYQGRCKKTCRDVFCPGSSTCVVDQTNNAYCVTCNRICPEPASSEQYLCGNDGVTYSSACHLRKATCLLGRSIGLAYEGKCIKAKSCEDIQCTGGKKCLWDFKVGRGRCSLCDELCPDSKSDEPVCASDNATYASECAMKEAACSSGVLLEVKHSGSCNSISEDTEEEEEDEDQDYSFPISSILEW[here human IgG1 Fc with changes without letters]
modifications: N-linked glycan on N75 (39.6% occupancy)
notes: hyperglycosylated variant
B5: FS315K75N/C77T/K82T-hFcLALA (Fc fusion)
chain: GNCWLRQAKNGRCQVLYKTELSKEECCSTGRLSTSWTEEDVNDNTLFKWMIFNGGAPNCIPCKETCENVDCGPGNKTRMNKTNKPRCVCAPDCSNITWKGPVCGLDGKTYRNECALLKARCKEQPELEVQYQGRCKKTCRDVFCPGSSTCVVDQTNNAYCVTCNRICPEPASSEQYLCGNDGVTYSSACHLRKATCLLGRSIGLAYEGKCIKAKSCEDIQCTGGKKCLWDFKVGRGRCSLCDELCPDSKSDEPVCASDNATYASECAMKEAACSSGVLLEVKHSGSCNSISEDTEEEEEDEDQDYSFPISSILEW[here human IgG1 Fc with changes without letters]
modifications: N-linked glycan on N75 (69.7% occupancy)
notes: hyperglycosylated variant
B6: FS315G74N/K76T/P85T-hFcLALA (Fc fusion)
chain: GNCWLRQAKNGRCQVLYKTELSKEECCSTGRLSTSWTEEDVNDNTLFKWMIFNGGAPNCIPCKETCENVDCGPNKTCRMNKKNKTRCVCAPDCSNITWKGPVCGLDGKTYRNECALLKARCKEQPELEVQYQGRCKKTCRDVFCPGSSTCVVDQTNNAYCVTCNRICPEPASSEQYLCGNDGVTYSSACHLRKATCLLGRSIGLAYEGKCIKAKSCEDIQCTGGKKCLWDFKVGRGRCSLCDELCPDSKSDEPVCASDNATYASECAMKEAACSSGVLLEVKHSGSCNSISEDTEEEEEDEDQDYSFPISSILEW[here human IgG1 Fc with changes without letters]
B7: FS315P85T-hFcLALA (Fc fusion)
chain: GNCWLRQAKNGRCQVLYKTELSKEECCSTGRLSTSWTEEDVNDNTLFKWMIFNGGAPNCIPCKETCENVDCGPGKKCRMNKKNKTRCVCAPDCSNITWKGPVCGLDGKTYRNECALLKARCKEQPELEVQYQGRCKKTCRDVFCPGSSTCVVDQTNNAYCVTCNRICPEPASSEQYLCGNDGVTYSSACHLRKATCLLGRSIGLAYEGKCIKAKSCEDIQCTGGKKCLWDFKVGRGRCSLCDELCPDSKSDEPVCASDNATYASECAMKEAACSSGVLLEVKHSGSCNSISEDTEEEEEDEDQDYSFPISSILEW[here human IgG1 Fc with changes without letters]
B8: FS315R78N/N80T-hFcLALA (Fc fusion)
chain: GNCWLRQAKNGRCQVLYKTELSKEECCSTGRLSTSWTEEDVNDNTLFKWMIFNGGAPNCIPCKETCENVDCGPGKKCNMTKKNKPRCVCAPDCSNITWKGPVCGLDGKTYRNECALLKARCKEQPELEVQYQGRCKKTCRDVFCPGSSTCVVDQTNNAYCVTCNRICPEPASSEQYLCGNDGVTYSSACHLRKATCLLGRSIGLAYEGKCIKAKSCEDIQCTGGKKCLWDFKVGRGRCSLCDELCPDSKSDEPVCASDNATYASECAMKEAACSSGVLLEVKHSGSCNSISEDTEEEEEDEDQDYSFPISSILEW[here human IgG1 Fc with changes without letters]
B9: FS315G74N/K76S-hFcLALA (Fc fusion)
chain: GNCWLRQAKNGRCQVLYKTELSKEECCSTGRLSTSWTEEDVNDNTLFKWMIFNGGAPNCIPCKETCENVDCGPNKSCRMNKKNKPRCVCAPDCSNITWKGPVCGLDGKTYRNECALLKARCKEQPELEVQYQGRCKKTCRDVFCPGSSTCVVDQTNNAYCVTCNRICPEPASSEQYLCGNDGVTYSSACHLRKATCLLGRSIGLAYEGKCIKAKSCEDIQCTGGKKCLWDFKVGRGRCSLCDELCPDSKSDEPVCASDNATYASECAMKEAACSSGVLLEVKHSGSCNSISEDTEEEEEDEDQDYSFPISSILEW[here human IgG1 Fc with changes without letters]
notes: printed only as 'G74N/K76S'
B10: FS303K(76,81,82)A-hFcLALA (Fc fusion)
chain: GNCWLRQAKNGRCQVLYKTELSKEECCSTGRLSTSWTEEDVNDNTLFKWMIFNGGAPNCIPCKETCENVDCGPGKACRMNAANKPRCVCAPDCSNITWKGPVCGLDGKTYRNECALLKARCKEQPELEVQYQGRCKKTCRDVFCPGSSTCVVDQTNNAYCVTCNRICPEPASSEQYLCGNDGVTYSSACHLRKATCLLGRSIGLAYEGKCIKAKSCEDIQCTGGKKCLWDFKVGRGRCSLCDELCPDSKSDEPVCASDNATYASECAMKEAACSSGVLLEVKHSGSCNSISEDTEEEEEDEDQ[here human IgG1 Fc with changes without letters]
notes: built from its name

Target: T1, Myostatin
Experiment: SPR

Row | Kd [pM] | Binder
1 | 15 | B1
2 | 26 | B2
3 | 12.7 | B3
4 | 24.4 | B4
5 | 40.3 | B5
6 | 11.6 | B6
7 | 12.4 | B7
8 | 13 | B8
9 | 11.6 | B9

Target: T2, BMP-10
Experiment: SPR (BIAcore), anti-human Fc capture, BMP-10 as analyte

Row | binding result | Binder
10 | no binding (tested: 25-0.190 nM) | B10
11 | no binding (tested: 25-0.190 nM) | B1
12 | no binding (tested: 25-0.190 nM) | B2
13 | no binding (tested: 25-0.190 nM) | B3
14 | no binding (tested: 25-0.190 nM) | B4
15 | no binding (tested: 25-0.190 nM) | B5

Target: T3, BMP-9
Experiment: SPR (BIAcore), anti-human Fc capture, BMP-9 as analyte

Row | binding result | Binder
16 | no binding (tested: 25-0.190 nM) | B10
17 | no binding (tested: 25-0.190 nM) | B1
18 | no binding (tested: 25-0.190 nM) | B2
19 | no binding (tested: 25-0.190 nM) | B4

Target: T1, Myostatin
Experiment: SPR (BIAcore), anti-human Fc capture, myostatin as analyte

Row | Kd [pM] | Binder
20 | 12.7 | B10
21 | 15 | B1
22 | 12.7 | B3
23 | 24.4 | B4
24 | 40.3 | B5
25 | 12.4 | B7
26 | 13 | B8

Target: T4, Activin A
Experiment: cell-based or functional assay

Row | Activin A IC50, cell-based assay for SMAD pathway (A204 luciferase reporter) | Binder
27 | 1200 pM | B1
28 | 2100 pM and 4200 pM | B2
29 | 2100 pM | B4
30 | 1300 pM | B6
31 | 1300 pM | B9

Target: T1, Myostatin
Experiment: cell-based or functional assay

Row | Myostatin IC50, cell-based assay for SMAD pathway (A204 luciferase reporter) | Binder
32 | 900 pM | B1
33 | 1500 pM and 1900 pM | B2
34 | 1500 pM | B4
35 | 700 pM and 1800 pM | B5
36 | 1000 pM | B6
37 | 900 pM | B9
